Among the data in paper PMC9911399, “Two distinct binding modes provide the RNA-binding protein RbFox with extraordinary sequence specificity” are binding signal values, retold here.

The labels stand for the following.
T1: RBFOX1 RRM (Homo sapiens, UniProt Q9NWB1 109-208)
T1 sequence: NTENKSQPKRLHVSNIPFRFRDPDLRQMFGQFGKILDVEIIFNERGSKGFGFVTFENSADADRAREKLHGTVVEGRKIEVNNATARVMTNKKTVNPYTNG

B1: GCCUGAU (DNA:RNA)
RNA: GGGAGACCGGAAUUCAGAUUGUCCGCCUGAUUUAAAUCCCGUCGUAGCCACCA
DNA 1: CAATCTGAATTCCGGTCTCCC
DNA 2: TGGTGGCTACGACGGGATT
B2: AGAUAUC (DNA:RNA)
RNA: B1 RNA with G25A, C26G, C27A, G29A, A30U, U31C
DNA 1: CAATCTGAATTCCGGTCTCCC
DNA 2: TGGTGGCTACGACGGGATT
B3: GGCUCGU (DNA:RNA)
RNA: B1 RNA with C26G, G29C, A30G
DNA 1: CAATCTGAATTCCGGTCTCCC
DNA 2: TGGTGGCTACGACGGGATT
B4: AACUUAC (DNA:RNA)
RNA: B1 RNA with G25A, C26A, G29U, U31C
DNA 1: CAATCTGAATTCCGGTCTCCC
DNA 2: TGGTGGCTACGACGGGATT
B5: UCUCGUG (DNA:RNA)
RNA: B1 RNA with G25U, C27U, U28C, A30U, U31G
DNA 1: CAATCTGAATTCCGGTCTCCC
DNA 2: TGGTGGCTACGACGGGATT
B6: GAGUAAA (DNA:RNA)
RNA: B1 RNA with C26A, C27G, G29A, U31A
DNA 1: CAATCTGAATTCCGGTCTCCC
DNA 2: TGGTGGCTACGACGGGATT
B7: UGCUCAG (DNA:RNA)
RNA: B1 RNA with G25U, C26G, G29C, U31G
DNA 1: CAATCTGAATTCCGGTCTCCC
DNA 2: TGGTGGCTACGACGGGATT
B8: GCGGGUA (DNA:RNA)
RNA: B1 RNA with C27G, U28G, A30U, U31A
DNA 1: CAATCTGAATTCCGGTCTCCC
DNA 2: TGGTGGCTACGACGGGATT
B9: AAGCCAG (DNA:RNA)
RNA: B1 RNA with G25A, C26A, C27G, U28C, G29C, U31G
DNA 1: CAATCTGAATTCCGGTCTCCC
DNA 2: TGGTGGCTACGACGGGATT
B10: CAUGCAU (DNA:RNA)
RNA: B1 RNA with G25C, C26A, C27U, U28G, G29C
DNA 1: CAATCTGAATTCCGGTCTCCC
DNA 2: TGGTGGCTACGACGGGATT
B11: GAAGAAG (DNA:RNA)
RNA: B1 RNA with C26A, C27A, U28G, G29A, U31G
DNA 1: CAATCTGAATTCCGGTCTCCC
DNA 2: TGGTGGCTACGACGGGATT
B12: AGGUGGA (DNA:RNA)
RNA: B1 RNA with G25A, C26G, C27G, A30G, U31A
DNA 1: CAATCTGAATTCCGGTCTCCC
DNA 2: TGGTGGCTACGACGGGATT
B13: GACUACU (DNA:RNA)
RNA: B1 RNA with C26A, G29A, A30C
DNA 1: CAATCTGAATTCCGGTCTCCC
DNA 2: TGGTGGCTACGACGGGATT
B14: AUCAGCC (DNA:RNA)
RNA: B1 RNA with G25A, C26U, U28A, A30C, U31C
DNA 1: CAATCTGAATTCCGGTCTCCC
DNA 2: TGGTGGCTACGACGGGATT
B15: AAGAUUG (DNA:RNA)
RNA: GGGAGACCGGAAUUCAGAUUGUCCAAGAUUGUUAAAUCCCGUCGUAGCCACCA
DNA 1: CAATCTGAATTCCGGTCTCCC
DNA 2: TGGTGGCTACGACGGGATT
B16: CCGCUCU (DNA:RNA)
RNA: B15 RNA with A25C, A26C, A28C, U30C, G31U
DNA 1: CAATCTGAATTCCGGTCTCCC
DNA 2: TGGTGGCTACGACGGGATT
B17: CUCAUGA (DNA:RNA)
RNA: B15 RNA with A25C, A26U, G27C, U30G, G31A
DNA 1: CAATCTGAATTCCGGTCTCCC
DNA 2: TGGTGGCTACGACGGGATT
B18: GAAGUCG (DNA:RNA)
RNA: B15 RNA with A25G, G27A, A28G, U30C
DNA 1: CAATCTGAATTCCGGTCTCCC
DNA 2: TGGTGGCTACGACGGGATT
B19: AUGUCAC (DNA:RNA)
RNA: B15 RNA with A26U, A28U, U29C, U30A, G31C
DNA 1: CAATCTGAATTCCGGTCTCCC
DNA 2: TGGTGGCTACGACGGGATT
B20: AAAUGCA (DNA:RNA)
RNA: B15 RNA with G27A, A28U, U29G, U30C, G31A
DNA 1: CAATCTGAATTCCGGTCTCCC
DNA 2: TGGTGGCTACGACGGGATT
B21: AGUACCC (DNA:RNA)
RNA: B15 RNA with A26G, G27U, U29C, U30C, G31C
DNA 1: CAATCTGAATTCCGGTCTCCC
DNA 2: TGGTGGCTACGACGGGATT
B22: AGCAUUC (DNA:RNA)
RNA: B15 RNA with A26G, G27C, G31C
DNA 1: CAATCTGAATTCCGGTCTCCC
DNA 2: TGGTGGCTACGACGGGATT
B23: GCGCCAG (DNA:RNA)
RNA: B1 RNA with C27G, U28C, G29C, U31G
DNA 1: CAATCTGAATTCCGGTCTCCC
DNA 2: TGGTGGCTACGACGGGATT
B24: CCUGGUU (DNA:RNA)
RNA: B1 RNA with G25C, C27U, U28G, A30U
DNA 1: CAATCTGAATTCCGGTCTCCC
DNA 2: TGGTGGCTACGACGGGATT
B25: UCCCGUC (DNA:RNA)
RNA: B1 RNA with G25U, U28C, A30U, U31C
DNA 1: CAATCTGAATTCCGGTCTCCC
DNA 2: TGGTGGCTACGACGGGATT
B26: ACAUCCA (DNA:RNA)
RNA: B1 RNA with G25A, C27A, G29C, A30C, U31A
DNA 1: CAATCTGAATTCCGGTCTCCC
DNA 2: TGGTGGCTACGACGGGATT
B27: GCGUGGC (DNA:RNA)
RNA: B1 RNA with C27G, A30G, U31C
DNA 1: CAATCTGAATTCCGGTCTCCC
DNA 2: TGGTGGCTACGACGGGATT
B28: CGCGAAU (DNA:RNA)
RNA: B1 RNA with G25C, C26G, U28G, G29A
DNA 1: CAATCTGAATTCCGGTCTCCC
DNA 2: TGGTGGCTACGACGGGATT
B29: GUCUCCG (DNA:RNA)
RNA: B1 RNA with C26U, G29C, A30C, U31G
DNA 1: CAATCTGAATTCCGGTCTCCC
DNA 2: TGGTGGCTACGACGGGATT
B30: GCAUAUU (DNA:RNA)
RNA: B1 RNA with C27A, G29A, A30U
DNA 1: CAATCTGAATTCCGGTCTCCC
DNA 2: TGGTGGCTACGACGGGATT
B31: GGAAGCA (DNA:RNA)
RNA: B1 RNA with C26G, C27A, U28A, A30C, U31A
DNA 1: CAATCTGAATTCCGGTCTCCC
DNA 2: TGGTGGCTACGACGGGATT

Substitutions are numbered along the chain they refer to; changes in the protein carry UniProt numbers. This is one part of the list.

The target in this experiment is T1, RBFOX1 RRM. The experiment can be described thus: EMSA; HiTS-Eq, 1 nM pool, 10 min; buffer printed only for the single-RNA assays: 10 mM Tris pH 7.5, 150 mM NaCl, 3.4 mM EDTA, 0.001% NP-40, 30 C. To be noted: tags: His6 N-terminal (pET28a); label: 5' 32P. The method in brief: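 Purified RbFox RRM (wild type or mutant) was equilibrated for 10 min in 50 µL with 1 nM of a 5′-radiolabelled pool of RNA with 7 randomized nucleotides, its flanks annealed to DNA oligonucleotides, across increasing protein concentrations. Free RNA was separated by 8% native PAGE, excised, reverse-transcribed, PCR-barcoded and sequenced on an Illumina HiSeq 2500. Relative association constants came from read-count changes of each variant against the control reaction, normalised to the cognate motif.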
Turning to B1, the binding signal is 0.0272 KA relative to UGCAUGU. Under B2 stands 0.00343 KA relative to UGCAUGU. Under B3 stands 0.0286 KA relative to UGCAUGU; under B4, 0.00294 KA relative to UGCAUGU. In the case of B5, the binding signal is 0.0175 KA relative to UGCAUGU. Under B6 stands 0.00477 KA relative to UGCAUGU; under B7, 0.0212 KA relative to UGCAUGU. Consider B8, for which the binding signal was 0.0169 KA relative to UGCAUGU. Take B9: the binding signal was 0.00442 KA relative to UGCAUGU. For B10, the binding signal is 0.0144 KA relative to UGCAUGU.

Consider B11, for which the binding signal was 0.0104 KA relative to UGCAUGU. B12: the binding signal is 0.00672 KA relative to UGCAUGU. To B13 belongs 0.0038 KA relative to UGCAUGU; to B14, 0.00365 KA relative to UGCAUGU.

Turning to B15, the binding signal is 0.0128 KA relative to UGCAUGU.

Consider B16, for which the binding signal was 0.00711 KA relative to UGCAUGU. Under B17 stands 0.00864 KA relative to UGCAUGU; under B18, 0.0101 KA relative to UGCAUGU; under B19, 0.0152 KA relative to UGCAUGU. Under B20 stands 0.00973 KA relative to UGCAUGU.

Consider B21, for which the binding signal was 0.00349 KA relative to UGCAUGU. Under B22 stands 0.00595 KA relative to UGCAUGU; under B23, 0.0189 KA relative to UGCAUGU; under B24, 0.0179 KA relative to UGCAUGU. To B25 belongs 0.0051 KA relative to UGCAUGU. Take B26: the binding signal is 0.000399 KA relative to UGCAUGU.

Consider B27, for which the binding signal was 0.0197 KA relative to UGCAUGU.

As for B28, the binding signal was 0.0101 KA relative to UGCAUGU. Turning to B29, the binding signal is 0.0144 KA relative to UGCAUGU. Regarding B30, the binding signal was 0.00375 KA relative to UGCAUGU.

With B31, the binding signal was 0.0162 KA relative to UGCAUGU.
